Measured values published in the supplement of paper PMC3334620.
In all, about 33,000 sequences were measured (“E-score (-0.5 to 0.5)”: median about -0.012, highest 2% from about 0.29 on). The list shows a part of the results.

biological target: T1, Ybr033w (UniProt P38073); assay: PBM E-score (8-mer binding enrichment) (E-score (-0.5 to 0.5)); higher = stronger / more preferred TF binding; most listed sequences are background and not binding sites; conditions: protein concentration: 200 nM; construct: GST-full length
T1 sequence: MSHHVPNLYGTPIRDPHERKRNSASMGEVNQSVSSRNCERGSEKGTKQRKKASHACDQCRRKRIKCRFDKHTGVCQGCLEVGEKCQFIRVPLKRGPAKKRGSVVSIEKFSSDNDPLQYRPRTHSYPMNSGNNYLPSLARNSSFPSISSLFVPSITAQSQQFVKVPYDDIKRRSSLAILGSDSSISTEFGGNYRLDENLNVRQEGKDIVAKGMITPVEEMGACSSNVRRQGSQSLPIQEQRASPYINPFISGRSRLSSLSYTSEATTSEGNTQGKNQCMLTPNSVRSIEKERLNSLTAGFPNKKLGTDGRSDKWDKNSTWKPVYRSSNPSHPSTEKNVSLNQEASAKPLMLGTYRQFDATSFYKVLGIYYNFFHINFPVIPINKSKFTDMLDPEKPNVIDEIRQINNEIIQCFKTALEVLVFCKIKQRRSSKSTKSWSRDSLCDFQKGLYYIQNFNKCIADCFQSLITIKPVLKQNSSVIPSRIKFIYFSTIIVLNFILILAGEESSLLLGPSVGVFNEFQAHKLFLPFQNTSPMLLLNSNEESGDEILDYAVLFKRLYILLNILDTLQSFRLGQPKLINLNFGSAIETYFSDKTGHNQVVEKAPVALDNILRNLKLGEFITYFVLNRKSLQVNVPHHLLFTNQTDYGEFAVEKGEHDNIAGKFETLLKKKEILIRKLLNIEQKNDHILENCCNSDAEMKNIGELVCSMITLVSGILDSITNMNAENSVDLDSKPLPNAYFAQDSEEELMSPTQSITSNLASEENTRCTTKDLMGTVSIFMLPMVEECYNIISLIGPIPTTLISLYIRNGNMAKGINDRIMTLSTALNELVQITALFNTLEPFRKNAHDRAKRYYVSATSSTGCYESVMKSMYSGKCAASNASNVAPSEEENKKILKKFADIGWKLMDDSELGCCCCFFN
Outline: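 Each ungapped eight-base word and its reverse complement, pooled, received an E-score from the Universal PBM Analysis Suite. Underlying scans, normalised with masliner, recorded fluorescent anti-GST bound to GST-tagged yeast transcription factors. These were applied at about 100-200 nM to universal all-10-mer Agilent arrays double-stranded by primer extension.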

Sequence	PBM E-score
CCAGATAC	-0.0567
GCTCAATA	0.0148
TCCTGTCA	0.0549
CTAGGAAG	0.00811
AAGTTCGC	0.0802
ACTGCCCC	-0.301
GGAATGAA	0.265
AAGTACAT	0.0939
TCAGTAGA	-0.0175
CTTTAGAC	0.0823
GTCTATTA	-0.0198
CACCCGTG	-0.162
CGTGGTTC	-0.0471
AATTCCCC	-0.0668
CGAACTCG	0.0597
AGGCGATG	-0.109
GAGAGGAC	-0.141
CCTCAGCA	-0.236
ACTCGCAG	0.0146
TTATAAAA	0.222
GAACTGTC	-0.124
TCTACTCA	0.086
AACTCCCC	0.0433
CCTATTCA	-0.114
CACTTGGC	-0.194

Sequence	PBM E-score
CCGTAATC	0.00305
CCGTCGTA	-0.167
CCTTAGAG	-0.367
GTATGGAC	0.0471
GGATATCA	-0.07
GCGCACGA	-0.00742
AAGACCCT	-0.0532
AAGGACCC	-0.358
ACGAGATA	-0.0352
GAAAATCC	0.308
AACAATGC	0.156
TCTCCACA	0.147
CACTGCGG	0.0493
CAGAGGCC	-0.356
GACTGATA	-0.144
CGGTACAC	-0.243
ACTAACGC	0.0783
AACAAGAC	0.183
AGCTCCGC	-0.0318
ACTGAACC	0.00627
CTGATGTC	0.139
GGGCATCA	-0.147
AACGGCGA	0.098
AATATCTG	0.276
TAGTTCCA	0.243

Sequence	PBM E-score
CACTGGGA	-0.0293
AGGGGGGA	-0.314
AATGGTGC	0.00744
ATTCTTCA	0.129
AAGGGCCT	-0.318
ATTTAACG	0.259
AATGTTGG	0.0504
GAAACCGC	0.0982
CGTAGCCC	-0.213
CCAATGCC	-0.253
ACGTATCT	-0.13
GCACTACA	-0.187
ATCGATTA	0.246
ATGACACC	-0.0427
ACTCCTAG	-0.174
GGGGCTGA	-0.187
TCGGAACA	0.387
AATGGACG	0.162
GAGCGTCC	-0.122
AGAGTCGC	-0.0162
GGATCTTA	0.0507
ATCATAAC	0.269
CCAGTAGA	-0.0815
CTAGAAGC	-0.117
AGCATTCG	-0.129

Sequence	PBM E-score
ACCTTAGA	-0.0616
AGAAGCTG	0.08
AGGATGCC	-0.102
ACAGATTA	-0.0636
AGTAGAAC	-0.0221
AATTAGTG	0.16
CCTGGCAC	-0.226
CTATTAAA	0.196
TCGTTCAA	-0.079
GAATCCCA	0.0577
CAGGGCCG	-0.182
AGTATAAC	-0.00437
CGGAGTCA	0.0128
CCCGGCTA	-0.207
GGTTAACA	0.158
CAACCCTC	-0.13
ATTGCTGC	0.0139
ATCTTAAC	0.154
CGCGCGGC	-0.0452
CAAAAAGC	0.0408
AGGTTTAG	0.0288
AACAATTC	0.205
ATTGTCCA	0.0132
CAGGTCTC	-0.204
TATCCCGA	0.0443

Sequence	PBM E-score
CCGCCGCC	-0.22
AATTGGAG	0.0437
GCAAGCAA	0.0036
CAAATTTA	0.237
CATGCGAC	0.0545
GAGCACAA	-0.0027
ACTCGTCC	-0.052
GCACTGGC	-0.222
AACGGTAG	-0.0285
ATGCTTAC	-0.137
GATCGTGC	-0.0603
CTTCGAAG	-0.00431
CACCAGAC	-0.0475
GAAAAGCA	-0.0682
AGTTTCAT	0.188
CCCCTACA	-0.363
ACGCAAAA	0.11
GCAGCATA	-0.0281
CCACCGCA	0.0272
TACATTCA	0.173
CCCGCGCA	0.0242
TGACGACA	0.0666
GGTTTTAC	-0.0499
CCTTCCGA	-0.0443
TACAGACA	0.173

Sequence	PBM E-score
AAGGAAGT	0.0991
ATCTTGTG	0.0678
CCCCGGCC	-0.396
CATAACCG	-0.168
CGCCTCGA	-0.0514
ATCCTCAG	0.0112
AACAAAGC	0.276
ACGCGAGG	-0.0988
AAGCGGTA	-0.00899
CCTCTATC	-0.04
CTCATCAG	0.0236
GCTTCACC	-0.155
TCTCCCAA	-0.0885
ATGTTTAG	0.149
AGGATTTA	0.228
AGGACCGA	0.0449
CAGCGTGA	-0.171
AGTGTCAT	0.115
AAGATAAA	0.257
ATACCCAC	0.0343
ATTCGACG	0.156
AGTGTGGA	0.145
TATTCAAA	0.155
GACGAAAC	-0.0385
ACATTCCC	0.0614

Sequence	PBM E-score
GCGCGCGA	0.111
ACAGATGT	-0.0123
AGTCGACT	0.204
ACTTGGAG	-0.0202
ACTATGGC	-0.0489
AGGTTTGC	0.0859
GGTGCGCA	-0.0323
TGGGAGAA	-0.0262
ACATCCGC	-0.0234
ATCAGCCG	-0.0949
ACTCCCAG	-0.191
ACAGGAGA	-0.0122
CATCCGAC	0.0138
ACAGGATG	0.0872
ATAAGGAA	0.0859
GGGATTAA	0.411
AGAAATCT	0.203
GACATGCC	-0.176
GTCATCTA	0.00626
GTGTTGCA	0.0272
AGCCCTAC	-0.0737
CTATTAAC	0.268
